Test results reported in paper PMC12136788.
This is one part of the list.

T1: UNK ZnF1-3 (human, UniProt Q9C0B0 31-174)
T1 sequence: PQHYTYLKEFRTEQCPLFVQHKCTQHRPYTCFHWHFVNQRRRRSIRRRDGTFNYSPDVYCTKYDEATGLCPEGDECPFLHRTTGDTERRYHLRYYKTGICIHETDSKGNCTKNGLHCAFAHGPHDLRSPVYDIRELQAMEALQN

B1: chr2:102142331:102142332:-_ENSMUSG00000027189_ENSMUST00000102573|mus_mus|FALSE|FALSE (ssRNA)
RNA: GGGAGUUCUACAGUCCGACGAUCAGCUUUGAGGACGAAGCUGAUACCAGUACAGAAAGUAUUCUUGUUCUUACAUUGAUAAAUGCUGCCACUAGGAACUUAGGGAUCUGGGCUAGGGGCUGCUGUGCUGUGUUUAAUGCUUUUCAACAGAGGAUUGAGCAUCA
B2: chr1:46159212:46159213:+_ENSG00000159596_ENST00000372025|hu_mus|hu_hu_hu_mus_True|8_58 (ssRNA)
RNA: GGGAGUUCUACAGUCCGACGAUCUCUGAUCCCUCCCAAGAAAGCUAGGAAACCGGCUCCAUAAGCCAUCUGAGUGAAAGCUAAUAUGGGGAUAUAAGACUUUGUUAUUACCAUGAGAAGUGGGGGAGCAACGAAGGGGAUUAACAACAGAGGAUUGAGCAUCA
B3: chr19:8913615:8913616:-_ENSMUSG00000071658_ENSMUST00000096259|mus_hu|mus_mus_mus_hu_False|38_58 (ssRNA)
RNA: GGGAGUUCUACAGUCCGACGAUCAGGGUACCAAAACCUUCUGCCUGAAAUGGGUGCCCCACCCAGUAGGGAGUUGCAGCUAAAAAUAUCUGAUGCACUGACAGUUACUAUACGAAAGGAGGCCCCUGGGGAGGGCCAGGCCAGCAACAGAGGAUUGAGCAUCA
B4: chr5:128448638:128448639:+_ENSG00000066583_ENST00000173527|hu_mus|hu_hu_hu_mus_False|78_98 (ssRNA)
RNA: GGGAGUUCUACAGUCCGACGAUCGGCACUCGCCUUAAUUAGAUUCUGAAUUUCCUUGAAUUUUGGAUGGUCUUUGUCAGCCACCAGCUGUAGGAGGACAGCCUCACUAGUGGUCACGAUGAUCCCAGUGCGGGCAAGACGCUCCAACAGAGGAUUGAGCAUCA
B5: chr11:86518203:86518204:-_ENSMUSG00000047126_ENSMUST00000103186|perfect_dup|motif|central (ssRNA)
RNA: GGGAGUUCUACAGUCCGACGAUCGAACAACUCCAGGUGUUCUCUCAUUUUCUGUGGCUUGAAUUUAGAAUACAAAAUAGCGGGCUCUGUGAACAUUCCCAUGUGAGCUCGCUCCAGUCCCAAGGCUGCCUCCAACAUGGUGAUCAACAGAGGAUUGAGCAUCA
B6: chr12:73642893:73642894:+_ENSMUSG00000034501_ENSMUST00000044352|mus_mus|FALSE|FALSE (ssRNA)
RNA: GGGAGUUCUACAGUCCGACGAUCCACAAAGAGCACAGCAGUCGCCCCAGGGCUGCCAUACAGCAAGGUUACUCGGUUUGGGAGCAAAUACCAUGUUCCAAGACCACACACUAGCCCAGCAAGAACAGAAUGAAAAACUGUAUUCAACAGAGGAUUGAGCAUCA
B7: chr18:52894491:52894492:-_ENSG00000196628_ENST00000354452|hu_mus|FALSE|FALSE (ssRNA)
RNA: GGGAGUUCUACAGUCCGACGAUCCAAAAAAAAAAAUCCAUAUUUACAGUAAAAUCUUUCUUUUAAAAAAGUUAAUCAGUACUAUUUUUUUACAGGAGAAAAAAGUCUGAAACAAAUCAACAAAAGCUUACCAUAGUCACUAAACAACAGAGGAUUGAGCAUCA
B8: chr12:56508462:56508463:+_ENSMUSG00000021024_ENSMUST00000021412|mus_mus|FALSE|FALSE (ssRNA)
RNA: GGGAGUUCUACAGUCCGACGAUCACAGUCCUUUCCUCUGACAGCAACAGAUGUAAGUCCACCCUGGUUAAUAGCCUUAAAAGCAUAUUCUACUUGGUAGAGUCGGCCCUCGGGAGAGAAGAUAGUAAUGUGACGGUCAAAACCCAACAGAGGAUUGAGCAUCA
B9: chr1:39494447:39494448:+_ENSG00000168653_ENST00000372967|hu_mus|hu_hu_hu_mus_False|48_98 (ssRNA)
RNA: GGGAGUUCUACAGUCCGACGAUCGCACCGAGCGGCGAUCUUGUAGGGCUGUUCUGCGCUUAGGAACAUAAAGUGCCGGUCCAGGCUAAGGCCGAACUUUUUCUGUAUGUCAAGGAAAGGCAUGGCUCUGCAGUGCCCUUGUCACAACAGAGGAUUGAGCAUCA
B10: chr7:140404665:140404666:+_ENSG00000090266_ENST00000247866|hu_hu|hu_hu_hu_mus_False|18_98 (ssRNA)
RNA: GGGAGUUCUACAGUCCGACGAUCUGCUCCUACUCGUAGGCUGAGUCUACAGUGUCAGUCCUCGUCAUCAGGAGGGAUUCCCAGUUCUUCAUCUGUCCACUGUGAAGGAUCUGGAUACGGAAAGUGACCCAGCACAGCAUCCGACAACAGAGGAUUGAGCAUCA
B11: chr12:29513650:29513651:+_ENSMUSG00000036613_ENSMUST00000035657|mus_mus|FALSE|FALSE (ssRNA)
RNA: GGGAGUUCUACAGUCCGACGAUCCUCCAGGGUCUGAGCAGUGCUUGCAGGGUCGUCAGGGGACUCGUGGCUACCGGAUUCUAAUUCCUUGGGCAUCCUCCACACAGCUGCACACGCCUGGACUCGACUGUCUGUAGUUUUGUUCAACAGAGGAUUGAGCAUCA
B12: chr6:86333760:86333761:-_ENSG00000135316_ENST00000355238|hu_mus|hu_hu_hu_mus_True|18_78 (ssRNA)
RNA: GGGAGUUCUACAGUCCGACGAUCUUCCUCAAGAAUCUGCUCCUUGGUUUUACUCUUAGGAAUAGAGCCCACAAAAAGCCUAUUGUUGGCAACUGAGAUGCAGACACCAAUGUGCUUUCCAGAACGAAUUUCAUGAUUAUUAUACAACAGAGGAUUGAGCAUCA
B13: 160276187_160276976_1568_CDS_ENSG00000122218_ENST00000241704|human|control|control (ssRNA)
RNA: GGGAGUUCUACAGUCCGACGAUCAAGCAGGAGAUUGCCUGUGCCAGCAUAGAAGAUCUCAUCACAGUUGGGCACCUGUACCUUUUUGGUGAUCUCAUUCUUCAGAUUCUUGAUCAGAAGCGAAUGCAUCCGAUCUAGGACAGCCAACAGAGGAUUGAGCAUCA
B14: chr8:74858975:74858976:-_ENSG00000154582_ENST00000284811|hu_mus|hu_hu_hu_mus_True|18_18 (ssRNA)
RNA: GGGAGUUCUACAGUCCGACGAUCGACCUUGUAGGUAAAAUACAUGCACACUUUUGAUAGCACAUGUGAGGGGAUCUCUCUAAAAUUGACCUCGUUGGUUUCAUUCUCAGCAAACUGACCUGGGCCACUCAACAUAGCCUUUAUCAACAGAGGAUUGAGCAUCA

Molecular target: T1, UNK ZnF1-3
Experiment: nsRBNS (natural sequence RNA bind-n-seq); RBNS binding buffer (assumed for nsRBNS): 25 mM Tris pH 7.5, 150 mM KCl, 3 mM MgCl2, 0.01% Triton X-100, 500 ug/ml BSA, 20 U/ml SUPERase-In, 4 C; UNK is unkempt and MSI1 is Musashi-1; names of the RNAs are library labels; protein concentration not given here; high values mean tight binding

Row | Binder | binding signal [enrichment R]
1 | B1 | 1.67
2 | B2 | 1.46
3 | B3 | 1.39
4 | B4 | 0.961
5 | B5 | 0.775
6 | B6 | 1.25
7 | B7 | 1.78
8 | B8 | 1.19
9 | B9 | 0.622
10 | B10 | 0.909
11 | B11 | 0.889
12 | B12 | 1.07
13 | B13 | 1.01
14 | B14 | 0.649
